# The supplement of paper PMC8728848
# Some of the results follow.
# B1: ConA (Canavalia ensiformis), P02866 (protein)
# chain: MAISKKSSLFLPIFTFITMFLMVVNKVSSSTHETNALHFMFNQFSKDQKDLILQGDATTGTDGNLELTRVSSNGSPQGSSVGRALFYAPVHIWESSAVVASFEATFTFLIKSPDSHPADGIAFFISNIDSSIPSGSTGRLLGLFPDANVIRNSTTIDFNAAYNADTIVAVELDTYPNTDIGDPSYPHIGIDIKSVRSKKTAKWNMQNGKVGTAHIIYNSVDKRLSAVVSYPNADSATVSYDVDLDNVLPEWVRVGLSASTGLYKETNTILSWSFTSKLKSNEIPDIATVV
# What was measured:
# Assay in all cases: glycan array binding signal (z-score within array); higher = stronger binding
# Details in all cases: glycan notation: IUPAC condensed, linker removed
# [1] = target: Fuc(a1-2)[Gal(a1-3)]Gal(b1-3)GlcNAc(b1-3)GalNAc
# In short: (§1)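 Arrays were curated from the Consortium for Functional Glycomics database, 3228 in total, and kept only where the protein sequence was available. Binding is expressed as a within-array Z-score. This score was averaged across arrays of the same protein sequence at different concentrations or buffers and across linkers, and negative values can be read as non-binding.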
# [2] = target: Fuc(a1-2)[Gal(a1-3)]Gal(b1-4)Glc
# In short: as §1
# [3] = target: Fuc(a1-2)[Gal(a1-3)]Gal(b1-4)GlcNAc
# In short: as §1
# [4] = target: Fuc(a1-2)[Gal(a1-3)]Gal(b1-4)GlcNAc(b1-2)Man(a1-3)[Fuc(a1-2)[Gal(a1-3)]Gal(b1-4)GlcNAc(b1-2)Man(a1-6)]Man(b1-4)GlcNAc(b1-4)GlcNAc
# In short: as §1
# [5] = target: Fuc(a1-2)[Gal(a1-3)]Gal(b1-4)GlcNAc(b1-2)Man(a1-3)[Fuc(a1-2)[Gal(a1-3)]Gal(b1-4)GlcNAc(b1-2)Man(a1-6)]Man(b1-4)GlcNAc(b1-4)[Fuc(a1-6)]GlcNAc
# In short: as §1
# [6] = target: Fuc(a1-2)[Gal(a1-3)]Gal(b1-4)GlcNAc(b1-3)GalNAc
# In short: as §1
# [7] = target: Fuc(a1-2)[Gal(a1-3)]Gal(b1-4)[Fuc(a1-3)]Glc
# In short: as §1
# [8] = target: Fuc(a1-2)[Gal(a1-3)]Gal(b1-4)[Fuc(a1-3)]GlcNAc
# In short: as §1
# [9] = target: Fuc(a1-2)[Gal(a1-3)]Gal(b1-4)[Fuc(a1-3)]GlcNAc(b1-3)GalNAc
# In short: as §1
# [10] = target: Fuc(a1-2)[Gal(a1-4)]Gal(b1-4)GlcNAc
# In short: as §1
# [11] = target: Fuc(a1-2)[GalNAc(a1-3)]Gal
# In short: as §1
# [12] = target: Fuc(a1-2)[GalNAc(a1-3)]Gal(b1-3)GalNAc(a1-3)[Fuc(a1-2)]Gal(b1-4)GlcNAc
# In short: as §1
# [13] = target: Fuc(a1-2)[GalNAc(a1-3)]Gal(b1-3)GlcNAc
# In short: as §1
# [14] = target: Fuc(a1-2)[GalNAc(a1-3)]Gal(b1-3)GlcNAc(b1-2)Man(a1-3)[Fuc(a1-2)[GalNAc(a1-3)]Gal(b1-3)GlcNAc(b1-2)Man(a1-6)]Man(b1-4)GlcNAc(b1-4)GlcNAc
# In short: as §1
# [15] = target: Fuc(a1-2)[GalNAc(a1-3)]Gal(b1-3)GlcNAc(b1-2)Man(a1-3)[Fuc(a1-2)[GalNAc(a1-3)]Gal(b1-3)GlcNAc(b1-2)Man(a1-6)]Man(b1-4)GlcNAc(b1-4)[Fuc(a1-6)]GlcNAc
# In short: as §1
# [16] = target: Fuc(a1-2)[GalNAc(a1-3)]Gal(b1-3)GlcNAc(b1-3)GalNAc
# In short: as §1
# [17] = target: Fuc(a1-2)[GalNAc(a1-3)]Gal(b1-4)Glc
# In short: as §1
# [18] = target: Fuc(a1-2)[GalNAc(a1-3)]Gal(b1-4)GlcNAc
# In short: as §1
# [19] = target: Fuc(a1-2)[GalNAc(a1-3)]Gal(b1-4)GlcNAc(b1-2)Man(a1-3)[Fuc(a1-2)[GalNAc(a1-3)]Gal(b1-4)GlcNAc(b1-2)Man(a1-6)]Man(b1-4)GlcNAc(b1-4)GlcNAc
# In short: as §1
# [20] = target: Fuc(a1-2)[GalNAc(a1-3)]Gal(b1-4)GlcNAc(b1-2)Man(a1-3)[Fuc(a1-2)[GalNAc(a1-3)]Gal(b1-4)GlcNAc(b1-2)Man(a1-6)]Man(b1-4)GlcNAc(b1-4)[Fuc(a1-6)]GlcNAc
# In short: as §1
# [21] = target: Fuc(a1-2)[GalNAc(a1-3)]Gal(b1-4)GlcNAc(b1-3)Gal(b1-4)GlcNAc
# In short: as §1
# [22] = target: Fuc(a1-2)[GalNAc(a1-3)]Gal(b1-4)GlcNAc(b1-3)Gal(b1-4)GlcNAc(b1-3)Gal(b1-4)GlcNAc
# In short: as §1
# [23] = target: Fuc(a1-2)[GalNAc(a1-3)]Gal(b1-4)GlcNAc(b1-3)GalNAc
# In short: as §1
# [24] = target: Fuc(a1-2)[GalNAc(a1-3)]Gal(b1-4)[Fuc(a1-3)]GlcNAc
# In short: as §1
# [25] = target: Fuc(a1-2)[GalNAc(a1-3)]Gal(b1-4)[Fuc(a1-3)]GlcNAc(b1-3)GalNAc
# In short: as §1
# [26] = target: Fuc(a1-2)[GalNAc(a1-4)]Gal(b1-4)GlcNAc
# In short: as §1
# [27] = target: Fuc(a1-2)[GalNAc(b1-3)]Gal
# In short: as §1
# Fuc(a1-3)GlcNAc = target: Fuc(a1-3)GlcNAc
# In short: as §1
# [28] = target: Fuc(a1-3)[Gal(b1-4)]Glc6S
# In short: as §1
# [29] = target: Fuc(a1-3)[Gal(b1-4)]GlcNAc
# In short: as §1
# [30] = target: Fuc(a1-3)[Gal(b1-4)]GlcNAc(b1-2)Man(a1-3)[Fuc(a1-3)[Gal(b1-4)]GlcNAc(b1-2)Man(a1-6)]Man(b1-4)GlcNAc(b1-4)GlcNAc
# In short: as §1
# [31] = target: Fuc(a1-3)[Gal(b1-4)]GlcNAc(b1-2)Man(a1-3)[Fuc(a1-3)[Gal(b1-4)]GlcNAc(b1-2)Man(a1-6)]Man(b1-4)GlcNAc(b1-4)[Fuc(a1-6)]GlcNAc
# In short: as §1
# [32] = target: Fuc(a1-3)[Gal(b1-4)]GlcNAc(b1-3)Gal(b1-3)[Fuc(a1-4)]GlcNAc
# In short: as §1
# [33] = target: Fuc(a1-3)[Gal(b1-4)]GlcNAc(b1-3)GalNAc
# In short: as §1
# [34] = target: Fuc(a1-3)[Gal(b1-4)]GlcNAc(b1-4)Gal(b1-4)[Fuc(a1-3)]GlcNAc
# In short: as §1
# [35] = target: Fuc(a1-3)[Gal(b1-4)]GlcNAc(b1-4)Gal(b1-4)[Fuc(a1-3)]GlcNAc(b1-4)Gal(b1-4)[Fuc(a1-3)]GlcNAc
# In short: as §1
# [36] = target: Fuc(a1-3)[Gal(b1-4)]GlcNAc(b1-6)GalNAc
# In short: as §1
# [37] = target: Fuc(a1-3)[Gal(b1-4)]GlcNAc(b1-6)[Gal(b1-3)GlcNAc(b1-3)]Gal(b1-4)Glc
# In short: as §1
# [38] = target: Fuc(a1-3)[Gal(b1-4)]GlcNAc(b1-6)[Neu5Ac(a2-3)Gal(b1-3)]GalNAc
# In short: as §1
# [39] = target: Fuc(a1-3)[Gal(b1-4)]GlcNAc6S
# In short: as §1
# [40] = target: Fuc(a1-3)[Gal3S(b1-4)]GlcNAc
# In short: as §1
# [41] = target: Fuc(a1-3)[Gal3S(b1-4)]GlcNAc6S
# In short: as §1
# [42] = target: Fuc(a1-3)[GalNAc(b1-4)]GlcNAc
# In short: as §1
# Fuc(a1-4)GlcNAc = target: Fuc(a1-4)GlcNAc
# In short: as §1
# Fuc(b1-3)GlcNAc = target: Fuc(b1-3)GlcNAc
# In short: as §1
binder,measurement,setting,value
B1,glycan array binding signal (z-score),[1],-0.237
same,glycan array binding signal (z-score),[2],-0.278
same,glycan array binding signal (z-score),[3],-0.276
same,glycan array binding signal (z-score),[4],-0.183
same,glycan array binding signal (z-score),[5],-0.07
same,glycan array binding signal (z-score),[6],-0.284
same,glycan array binding signal (z-score),[7],-0.161
same,glycan array binding signal (z-score),[8],-0.17
same,glycan array binding signal (z-score),[9],-0.205
same,glycan array binding signal (z-score),[10],-0.296
same,glycan array binding signal (z-score),[11],-0.17
same,glycan array binding signal (z-score),[12],-0.245
same,glycan array binding signal (z-score),[13],-0.279
same,glycan array binding signal (z-score),[14],-0.168
same,glycan array binding signal (z-score),[15],-0.061
same,glycan array binding signal (z-score),[16],-0.093
same,glycan array binding signal (z-score),[17],-0.296
same,glycan array binding signal (z-score),[18],-0.277
same,glycan array binding signal (z-score),[19],-0.206
same,glycan array binding signal (z-score),[20],-0.083
same,glycan array binding signal (z-score),[21],-0.196
same,glycan array binding signal (z-score),[22],0.306
same,glycan array binding signal (z-score),[23],-0.257
same,glycan array binding signal (z-score),[24],-0.163
same,glycan array binding signal (z-score),[25],-0.039
same,glycan array binding signal (z-score),[26],-0.24
same,glycan array binding signal (z-score),[27],-0.296
same,glycan array binding signal (z-score),Fuc(a1-3)GlcNAc,-0.268
same,glycan array binding signal (z-score),[28],-0.245
same,glycan array binding signal (z-score),[29],-0.281
same,glycan array binding signal (z-score),[30],-0.171
same,glycan array binding signal (z-score),[31],-0.25
same,glycan array binding signal (z-score),[32],0.051
same,glycan array binding signal (z-score),[33],-0.122
same,glycan array binding signal (z-score),[34],-0.2
same,glycan array binding signal (z-score),[35],-0.3
same,glycan array binding signal (z-score),[36],-0.107
same,glycan array binding signal (z-score),[37],-0.165
same,glycan array binding signal (z-score),[38],-0.159
same,glycan array binding signal (z-score),[39],-0.214
same,glycan array binding signal (z-score),[40],-0.253
same,glycan array binding signal (z-score),[41],-0.234
same,glycan array binding signal (z-score),[42],-0.292
same,glycan array binding signal (z-score),Fuc(a1-4)GlcNAc,-0.301
same,glycan array binding signal (z-score),Fuc(b1-3)GlcNAc,-0.239
